Measured values reported in the supplement of paper PMC11417369.
This is one part of the list.

System: PfSIP2 AP2 domain 1 (GST-tagged)
Assay: gcPBM binding intensity (ln(normalized median fluorescence intensity)); higher = stronger DNA binding
Summary of the method: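 DNA-binding domains from P. falciparum, fused to GST and produced in E. coli, were put on an Agilent 4 × 180k double-stranded probe array for 1 h in 1× PBS holding 1% milk, 0.2 mg/ml BSA, 0.5% salmon testes DNA and 0.03% Triton X-100. Probes were primer-extended, 36 bp long and drawn from intergenic genomic regions, with negative controls included. After Alexa488 anti-GST antibody detection and a 488 nm scan, binding intensity was set as the highest Masliner-normalised natural-log median intensity across replicate spots of either probe orientation.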

Row | Sequence | gcPBM binding intensity (ln)
1 | AACAGAAGCACATACACACACTCAAAAAAAAAAAAA [CACACA_site5652] | 7.19
2 | ATTTTATTCTAAAAAGGTACACATATTATTTTATGA [XGTACX_site7233] | 7.01
3 | ATTAATATATATGGATGTACTTATGTATGTATGCAT [XGTACX_site2263] | 7.24
4 | ATAATAATATATATTACACACGCATCGTTCATTTAT [CACACA_site8752] | 7.06
5 | GGAAAAACCATTCGCACACACACATAATATATAATA [CACACA_site1424] | 7.31
6 | CATGTATAATATAATACACACTATATAATATACACC [CACACA_site5267] | 7.11
7 | TCTTACTAATATCGCACACACATATGTAGACGGGAT [CACACA_site87] | 7.1
8 | TATTTATATGGACACACACACATATAAATAAATAAA [CACACA_site6346] | 7.03
9 | ATGGCCATAATATAGACACACATATATAAATATATA [CACACA_site2230] | 6.91
10 | CGATATGTTCAATATTGTACTATTTATAATAATATG [XGTACX_site3051] | 6.9
11 | TATTGACAAAATAGCTGTACAAATTAAAAGAAATAA [XGTACX_site4415] | 6.97
12 | CTTAAAAAAAAAAAATGTACACATAAAAAAAATACA [XGTACX_site6700] | 7.05
13 | TTTAATTGATAATGAAGACAATTATATGCATCCAAA [TGCATGCA_negctrl_site138] | 6.79
14 | TTATTGTCTTCTCATATACACACTTTTATGACTATC [CACACA_site3142] | 7.35
15 | AAACATATATATATTATATATATATATATATATATG [GTGCAC_negctrl_site182] | 7.73
16 | TAACATATAATATTCACACACATATATATATTATAT [CACACA_site988] | 7.11
17 | AAATTAAAAAGACATTCACACATTTTCATCTTAACA [CACACA_site5221] | 6.75
18 | TAAAATATTATAAAATGTACAAAACATATAAATATA [XGTACX_site5315] | 6.8
19 | TGTAGGTATTATTATACACACATAAAAAAAAAAAAA [CACACA_site3598] | 7.05

Row | Sequence | gcPBM binding intensity (ln)
20 | TATTATTATCTTACCACACACAATGTACGAAAAGAT [CACACA_site352] | 7.16
21 | TATATTTTCTATAGGTGTACTCCACATGCGGTGTTA [XGTACX_site7471] | 7.06
22 | ATATTGATACATCCAATACACACTACATATAATGAT [CACACA_site1874] | 6.99
23 | ATATATGATGTAAAAGCACACATATATATATATATA [CACACA_site9330] | 9.63
24 | TCCCTCTTTTTATTCTCACACACGTTTATATATAAA [CACACA_site1644] | 7.93
25 | AATATATATAAATATTGTACAAAAATATATATATAT [XGTACX_site2910] | 8.99
26 | AAACATCTTTACAACGTCCCTCCTTTTTTATGTACC [GTGCAC_negctrl_site528] | 6.76
27 | TATATAAACATATAAACATGCAATATATATATGTTA [TGCATGCA_site765] | 6.97
28 | AAAAATATATAACAAAGTACATATATATTTAGTAAT [XGTACX_site8791] | 6.71
29 | GGAAAAAAACTTATGAGTACACATAAATATAGCACA [XGTACX_site6686] | 7.66
30 | AAAAAAATTAAATCAAGTACTCATTCTTAAATTATA [XGTACX_site1274] | 6.89
31 | AATATAATATAATGCACACATAAAAAAAAAATCAAA [CACACA_site122] | 7.39
32 | TTTTTATATAACCTTCTTAATTCTTTTTTTTTTTTT [XGTACX_negctrl_site591] | 6.76
33 | AAAACAAAATTATGAACATGCAAGGTAAAATTGTAA [TGCATGCA_site775] | 7.29
34 | GTACAAATGTTGTGTATATATACACACATACATATA [XGTACX_negctrl_site276] | 7.23
35 | AACTTACTTGGACATACACACATATAGATTTATATA [CACACA_site7412] | 7.32
36 | ATGTAGTTTTATCAGTGTACAAGTATTTTATCACAT [XGTACX_site8958] | 7.01
37 | AAAATATATATATATATATATATATGTATACTCCTA [XGTACX_negctrl_site312] | 7.96
38 | TTTTATGTTTCAAAATGTACATTAAAATATACCATA [XGTACX_site1713] | 7.01

Row | Sequence | gcPBM binding intensity (ln)
39 | TTATTTATAAATATTAATTTTTTTTTTTTTTTTTTT [XGTACX_negctrl_site105] | 7.8
40 | CATATGCATACTATACGTACATATGTATATAATATA [XGTACX_site7738] | 7.18
41 | TTTTATTATTGAATACTAGTATATATAATATGAAGA [CACACA_negctrl_site910] | 7.22
42 | ATATATATATTTTTTAAACACACACCGAAATATTTG [CACACA_site8937] | 8.3
43 | TTAATTAAAACGAATACACACATAAATATATAAAAG [CACACA_site1254] | 7.27
44 | TATATATATATGTGCACACATAATAAAAAAAAAAAT [CACACA_site3831] | 9.49
45 | TATAAAGCATATTAAAGTACTTATTTTCCTTTTTCT [XGTACX_site8892] | 6.75
46 | TTTTATTTTATTCTTAAATAAGTATTATAAAATATG [XGTACX_negctrl_site201] | 6.75
47 | TTATTTGAACAATATGCACACATTTTATTTATTTTA [CACACA_site3420] | 7.13
48 | TTAATGTTGTATGGTTGTACAATAAGCCCCTTTTAA [XGTACX_site2484] | 6.99
49 | TATGATGATATAAAAACACACACATATAATATAATA [CACACA_site8321] | 7.13
50 | TTAAAGCTTACATATACACACATACATAAATTCATA [CACACA_site8785] | 7.07
51 | GTAAAATAAAATATATGTACATATGTATATGAGGTA [XGTACX_site3743] | 7.24
52 | GACATATTCCCCCCCACACACACACCCACATACATA [CACACA_site2302] | 9.81
53 | TTTTGATCATCCAAAATATCTTCATCTGAACTACTA [CACACA_negctrl_site939] | 6.58
54 | TACCCTGATCGGCATGCATGTAAGTAACAAATATAT [TGCATGCA_site153] | 7.05
55 | ATTTAGAAATATATTTGTACATATATATATATATAT [XGTACX_site7129] | 9.63
56 | ATTCAAACAAATTAATGTACATATATATAAGATATT [XGTACX_site1531] | 7
